The text below walks through data of FireProtDB (doi:10.1016/s0022-2836(03)00321-8).

The conditions of the data set: Homo sapiens; pH 6.6; 25 °C; GdnHCl; Fluorescence; N-(2-acetamido)-iminodiacetic acid 20 mM; NaCl 100 mM; reversible: yes.

In the case of “Fibroblast growth factor 1 wild type (sequence not shown)”, the denaturant m value worked out at 4.52 kcal/mol/M, the “denaturant midpoint (higher = more stable)” value is 1.11 M and the unfolding free energy was determined as 5.04 kcal/mol.
